Among all 150,000 compounds or so, about 540 (0.36%) showed an effect of 50% or more. This is one part of the list.
The compounds below were run on Plasmodium falciparum (assay: Primary screen in NF54 nanoGlo assay, in single point, at 2uM, 72h; a lower Z score goes with more inhibition). Settings: timepoint 72 hour.
Format: functional, Erythrocyte

SMILES	% Inhibition	Z score
CC[C@H]1CCCCN1Cc1cc2ccc(F)cc2n(Cc2ccncc2)c1=O	15%	-1.87
N#C[C@H]1CCCN(c2ncnc3c2CCN(C(=O)c2ccco2)CC3)C1	-8%	1.01
CC1CCC(C)(NC(=O)c2cc3c([nH]c2=O)CCCC3=O)CC1 (stereo unspecified)	1%	-0.13
COc1cc(N[C@@H](Cn2ccnc2)C(C)C)ncn1	3%	-0.27
CCN(CCO)C(=O)C[C@]1(c2ccccc2)CC(=O)N(Cc2ccc3c(c2)OCO3)C1=O	5%	-0.64
C[C@H]1Cc2ccccc2N1C(=O)c1cn(CCN(C)C)c2ccccc12	-14%	1.99
Nc1c(N2CCCC2)c(=O)n(CC(=O)Nc2ccc(Br)cc2)c(=O)n1Cc1ccccc1	-5%	0.63
COc1ccc(S(=O)(=O)c2cnc(N3CCN(C4CCCCC4)CC3)nc2N)cc1	-4%	0.66
Cc1nc2c(N)c(Cl)c(Cl)c(N)c2[nH]1	-6%	0.79
Cc1ccccc1-c1cnc(NC(=O)NCC2CCC(O)C2)s1 (stereo unspecified)	-13%	1.4
Cc1nc(C)n(CC2CCCCN2CC2CCCCO2)n1 (stereo unspecified)	-7%	0.76
CC[C@H](NCc1c(C)cc(C)c(COC(C)=O)c1C)c1ccnn1C	0%	0.04
Cc1ccc(-c2cc(C(=O)N3CCC[C@@](F)(c4nc(C5CC5)no4)C3)[nH]n2)cc1C	5%	-0.65
C[C@H](NC(=O)NCc1nc(C(C)(C)C)co1)c1cncc(F)c1	9%	-1.09
Cc1cc(=O)c(CO)nn1Cc1nc2c(s1)C(C)(C)CC(C)(C)C2	-5%	0.57
Cc1nsc(N2CC(CC(F)F)C2)n1	-11%	1.37
CCNc1ncc([C@@H]2C[C@H](NC(C)=O)C[C@H](c3ccc(Cl)cc3)O2)cn1	-4%	0.65
CCOCCCC(=O)NC1(C)CN(C(=O)OC)C1	-10%	1.23
CN(CCc1ccccc1)[C@@H](C(=O)O)c1ccc(N)c(F)c1	1%	-0.3
N=C(NOC(=O)Cc1ccccc1)c1ncon1	3%	-0.55
CCC(=O)Nc1ccccc1-c1nc2ccccc2n(CC(=O)Nc2c(C)cccc2C)c1=O	-1%	0.22

SMILES	% Inhibition	Z score
Cc1c(CC(=O)NC2CCCC2)c2c(n1C[C@H]1CCCO1)CCCC2=O	-2%	0.32
O=C(N[C@H]1CCc2nccn2C1)C1CCOCC1	-11%	1.7
OC1(c2cn(Cc3cn4cccnc4n3)nn2)CCCCC1	13%	-1.7
Oc1nc2ccccc2nc1N1CCCCC1	3%	-0.4
CO[C@@H](C)c1nsc(N[C@H]2CC[C@H](NC(=O)c3cc(C)on3)CC2)n1	3%	-0.43
CCOc1cc(C(=O)N[C@@](C)(CC)c2nc(C)cs2)on1	-5%	0.55
CO[C@H]1COCC[C@@H]1NC(=O)c1ccc(Cl)c(Cl)c1	-11%	1.16
CC(C)CC1NC(=O)C(C)NC(=O)C(CC(C)C)OC(=O)CCCNC1=O (stereo unspecified)	-3%	0.52
COc1cccc(Cn2nnc3cc(C(=O)Nc4ccc5c(c4)OCO5)ccc32)c1	0%	0.03
Clc1cccc(-n2cc(-c3noc(-c4cccnc4)n3)nn2)c1	-20%	3.83
COc1cccc(C(=O)N2CCN(c3cc(-n4ccnc4C)ncn3)CC2)c1	-1%	0.19
C[C@@]1(C(=O)N2CC(c3cccc(Cl)c3)C2)CCCO1	-1%	0.17
Cc1onc(-c2ccccc2)c1C(=O)Nc1cccc(NC(=O)c2c(-c3ccccc3)noc2C)c1	-11%	1.42
CN1CC[C@@H]2CN(C(=O)CCC3CCCCC3)C[C@]2(C(=O)O)C1	-3%	0.41
CCOc1ccccc1CN(Cc1cnc(COC)nc1)C1CC1	-10%	1.52
Cc1nscc1C(=O)N[C@H](C(N)=O)C(C)(C)C	-5%	0.51
CC(=O)Nc1nc(CS(=O)(=O)c2ccoc2C)cs1	-4%	0.48
COc1ccc(CNC(=O)[C@H]2CCCN(c3cnn(C)c(=O)c3)C2)c(OC)c1	27%	-3.06
Cc1nc(C)n(CC2CCCCN2C(C)C(=O)NCc2ccco2)n1 (stereo unspecified)	-8%	0.85
C[C@H](Oc1ccnc(N)c1)c1ccccc1	3%	-0.47
CN1C(=O)c2ccc(-c3ccc(F)cc3F)cc2O[C@H]2CN(S(C)(=O)=O)C[C@H]21	-3%	0.41

SMILES	% Inhibition	Z score
CC(C)(C)C(=O)N1CCc2ccc(OCC(=O)NCc3ccccc3)cc2[C@@H]1c1ccc(F)cc1	-12%	2.3
Cc1ccccc1OC[C@H](C)NC(=O)N(C)Cc1nccs1	-14%	1.8
O=C(O)CCc1cc2n(n1)CCCN(c1noc(-c3ccccc3)n1)C2	10%	-1.85
Cn1nccc1-c1nc([C@@H]2CN(Cc3ccccc3)CCO2)no1	-10%	0.97
CC(C)(C)NC(=O)NC[C@H]1CCCN1c1nccs1	-10%	1.84
O=C(Nc1nc2c(s1)CN(C(=O)c1cccs1)CC2)NC1CCCC1	-6%	0.94
C[C@@H]1NC2(CCN(S(=O)(=O)c3ccc(Cl)cc3)CC2)N(CC2CC2)C1=O	-15%	1.66
COCCN(CC(=O)N1N=C(c2ccc(OC)cc2)C[C@H]1c1ccc2c(c1)OCO2)C(=O)C1CCC1	-5%	1.03
COc1cccc(N2CCN(C(=O)c3coc(NC(=O)c4ccncc4)n3)CC2)c1	6%	-0.83
COc1ccc([C@H]2NCCc3c2[nH]c2ccccc32)cc1CN1C(=O)c2ccccc2C1=O	-3%	0.43
Cc1ccc(S(=O)(=O)N2CCN(C(=O)c3ccccc3)[C@@H]2c2ccc(Cl)cc2Cl)cc1	35%	-3.98
O=C1NCCC[C@@H]1NC(=O)[C@H]1CN(C(=O)c2cccc(F)c2)CCN1C(=O)c1cccs1	-10%	1.31
Cc1ccc([C@@]2(C(=O)NCc3cc(N4CCOCC4)ncn3)CC2(C)C)cc1	2%	-0.42
CC(C)(C)c1csc(CNC(=O)c2ccc(C#N)nc2)n1	-4%	0.49
CCn1nc(-c2nc3c([nH]2)CCCNC3=O)c2ccccc21	-3%	0.64
COc1nc(C)cc(N2C3CCC2CC(N(C)C(=O)c2ccccc2)C3)n1 (stereo unspecified)	-3%	0.49
CC(=O)C1(C(C)=O)[C@H](c2ccc(F)cc2)C1(C#N)C#N	41%	-5.28
Cc1ccc(CNC(=O)c2ccc(-c3ccco3)[nH]c2=O)n1C	-7%	0.87
CCC[C@H](NC(=O)c1cc(OC)ccn1)c1nccn1C	-7%	1.3
O=C(NCC(=O)N1CCc2ccccc2C1)C1CCCCC1	-1%	0.16
CCOc1ccccc1[C@H]1CC(=O)N(Cc2ccc(F)cc2)c2c1c(C)nn2-c1nc(C)cc(C)n1	-9%	1.25

SMILES	% Inhibition	Z score
COC(=O)C1CCC(C(=O)N2CCOC3(CCCCCC3)C2)CC1 (stereo unspecified)	-13%	1.3
CCc1cccc(NC(=O)c2cn(-c3ccc(-c4noc(C5CC5)n4)cc3)nc2C)c1	-15%	2.88
Brc1cccc2c(N3CCOCC3)nccc12	-10%	1.17
CCN(CC(=O)Nc1nc(-c2ccccc2)cn1-c1ccc(C(C)C)cc1)C(=O)C1CCCC1	1%	-0.12
Cn1cc(-c2nccnc2CNC(=O)c2cccs2)cn1	-11%	1.2
CC(=O)c1cn(C[C@H]2CCCCO2)c(=O)n(C)c1=O	-14%	2.52
Cc1nnc2c(N3CCN(C(=O)c4ccc(C(F)(F)F)nc4)CC3)nccn12	-16%	2.7
CC(C)(C)CC(=O)N1CC[C@H](Oc2ccncn2)C1	-1%	0.08
Nc1ncncc1C(=O)N(CC1CC1)C1CCCCC1	-10%	1.49
Cc1nc(CN2CCC3(CC2)CCN(C(=O)C2CCCC2)C[C@@H]3CO)c[nH]1	-2%	0.49
Cc1ncccc1Cc1noc([C@H]2CCCc3[nH]nnc32)n1	2%	-0.37
COC(=O)c1[nH]c(C)c(CN(C(=O)C2CCCCC2)C2CCCC2)c1C	-14%	1.65
CCOC(=O)C(C)(C)c1csc(C2CN3CCCC3CO2)n1 (stereo unspecified)	2%	-0.23
CCCN(CCC)Cc1ccc(CNc2nc(-c3ccc(OC)cc3)no2)o1	-6%	0.9
CC(C)(C)c1nc(Cn2cccc(C(F)(F)F)c2=O)no1	-11%	1
CNC(=O)Cn1c(-n2nc(C)cc2C)nc2c(c1=O)CCCC2	-9%	1.07
C[C@H](NCc1c[nH]c2nccnc12)c1ccc(Br)cc1F	-3%	0.45
COCc1ccc(C2CCCN2C2CCc3ccccc3NC2=O)o1 (stereo unspecified)	-6%	0.95
CCc1cc(NC(=O)Cc2ccc(OC)cc2)nn1-c1ccc(OC)cc1	-2%	0.3
COc1cc(OC)cc(C(=O)N2CCC[C@@]3(CCN(Cc4cccnc4)C3)C2)c1	-9%	1.86
